Laboratory results published in paper PMC9862037, “Interactions of Mycotoxin Alternariol with Cytochrome P450 Enzymes and OATP Transporters” (Metabolites, 2022).

Biological target: OATP1B1 (Homo sapiens, UniProt Q9Y6L6)
Type: cell-based
Design: expressed in transfected cells
Settings: Ace 5 µM preloading, E1S 50 μM, PFA 0.5%; for fluorescence signal in the CCF: AOH from two-fold of its IC50; for effect on efflux of the probe: buffer pH 5.5 without probe
Method: The assays were performed as described recently. Cells were seeded on 96-well plates one day prior to the measurement. After washing three times with PBS at room temperature, cells were incubated for 15 min with 8-acetoxy-1,3,6-trisulfopyrene (Ace, 5 µM). After this “preloading” stage, the supernatant was removed, and the cells were incubated with the same amount of the probe (Counterflow assay) or without the probe in buffer pH 5.5 (Efflux assay) in the absence and the presence of AOH for further 20 min. Fixed concentrations of AOH were selected based on the IC50 values determined in the transport inhibition assay. […]. Cells were washed three times with ice-cold PBS, then NaOH solution (0.1 N, 200 µL/well) was added. After 20 min, fluorescence was measured with an Enspire plate reader in Ex/Em wavelengths 460/510 nm. Bottom reading was applied with two horizontal (X) and two vertical (Y) points, measurement height was 3 mm with 200 flashes. Fluorescence was compared to the preloaded control incubated with Ace alone, considered as 100%.

UniProt Q9Y6L6, sequence (Q9Y6L6 whole entry): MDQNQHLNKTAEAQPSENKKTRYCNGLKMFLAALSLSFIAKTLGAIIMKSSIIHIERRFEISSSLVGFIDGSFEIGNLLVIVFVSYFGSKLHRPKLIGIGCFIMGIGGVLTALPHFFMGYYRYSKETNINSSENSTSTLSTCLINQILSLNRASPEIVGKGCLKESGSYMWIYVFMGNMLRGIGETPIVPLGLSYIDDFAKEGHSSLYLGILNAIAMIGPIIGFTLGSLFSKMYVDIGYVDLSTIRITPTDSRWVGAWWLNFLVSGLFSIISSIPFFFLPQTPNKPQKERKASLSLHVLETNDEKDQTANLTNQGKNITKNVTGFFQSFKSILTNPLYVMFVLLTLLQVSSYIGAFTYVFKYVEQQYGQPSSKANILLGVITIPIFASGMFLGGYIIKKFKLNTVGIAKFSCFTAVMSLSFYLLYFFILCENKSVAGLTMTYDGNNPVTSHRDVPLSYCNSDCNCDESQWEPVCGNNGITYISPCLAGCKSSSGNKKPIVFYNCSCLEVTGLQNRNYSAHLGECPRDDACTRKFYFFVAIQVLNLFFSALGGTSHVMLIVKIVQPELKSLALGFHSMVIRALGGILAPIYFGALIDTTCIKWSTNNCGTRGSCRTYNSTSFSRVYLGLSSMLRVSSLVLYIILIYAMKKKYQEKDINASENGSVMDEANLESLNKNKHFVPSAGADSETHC

C[C@]12CC[C@@H]3c4ccc(OS(=O)(=O)O)cc4CC[C@H]3[C@@H]1CCC2=O [E1S, Estrone-3-sulfate]
fluorescence signal in the CCF: decrease in the fluorescence signal
effect on efflux of the probe: not inhibiting efflux

Cc1cc(O)cc2oc(=O)c3c(O)cc(O)cc3c12 [AOH, Alternariol]
fluorescence signal in the CCF: decrease in the fluorescence signal
effect on efflux of the probe: not inhibiting efflux
